B1: Enfortumab-PBX-7016: ADC: payload PBX-7016, linker mc-GGFG, anti-Nectin-4 antibody (Enfortumab); DAR not stated where so labelled (conjugate)
heavy: EVQLVESGGGLVQPGGSLRLSCAASGFTFSSYNMNWVRQAPGKGLEWVSYISSSSSTIYYADSVKGRFTISRDNAKNSLSLQMNSLRDEDTAVYYCARAYYYGMDVWGQGTTVTVSSASTKGPSVFPLAPSSKSTSGGTAALGCLVKDYFPEPVTVSWNSGALTSGVHTFPAVLQSSGLYSLSSVVTVPSSSLGTQTYICNVNHKPSNTKVDKRV[human IgG1 Fc not given here]
light: DIQMTQSPSSVSASVGDRVTITCRASQGISGWLAWYQQKPGKAPKFLIYAASTLQSGVPSRFSGSGSGTDFTLTISSLQPEDFATYYCQQANSFPPTFGGGTKVEIKRTVAAPSVFIFPPSDEQLKSGTASVVCLLNNFYPREAKVQWKVDNALQSGNSQESVTEQDSKDSTYSLSSTLTLSKADYEKHKVYACEVTHQGLSSPVTKSFNRGEC
B2: Enf-PBX-7016 (DAR 4.1): Example 3 ADC made with 12 equivalents TCEP and 6 equivalents linker-payload; DAR 4.1 (conjugate)
heavy: B1 heavy
light: B1 light
B3: Enf-PBX-7016 (DAR 7.9): Example 3 ADC made with 30 equivalents TCEP and 12 equivalents linker-payload; DAR 7.9 (conjugate)
heavy: B1 heavy
light: B1 light

Assays:
recombinant rat Nectin-4 = target: T1, recombinant rat Nectin-4 (Rattus norvegicus, UniProt D3ZET1); assay: ELISA binding to recombinant Nectin-4
T1 sequence (D3ZET1 31-509): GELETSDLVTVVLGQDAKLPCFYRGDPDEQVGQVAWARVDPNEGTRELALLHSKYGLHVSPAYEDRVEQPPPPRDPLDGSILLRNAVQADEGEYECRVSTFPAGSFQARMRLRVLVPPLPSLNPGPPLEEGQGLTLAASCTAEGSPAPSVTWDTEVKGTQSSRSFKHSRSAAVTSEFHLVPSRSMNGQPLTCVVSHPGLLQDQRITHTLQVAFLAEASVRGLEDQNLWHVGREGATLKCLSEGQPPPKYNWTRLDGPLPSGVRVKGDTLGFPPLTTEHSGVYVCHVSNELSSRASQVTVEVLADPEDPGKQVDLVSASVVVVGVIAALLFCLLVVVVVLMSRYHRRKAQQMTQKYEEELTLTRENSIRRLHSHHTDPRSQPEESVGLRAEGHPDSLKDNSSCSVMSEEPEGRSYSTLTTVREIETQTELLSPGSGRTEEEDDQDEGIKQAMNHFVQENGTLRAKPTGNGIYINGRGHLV

[1] = target: recombinant human Nectin-3 (Homo sapiens, UniProt Q9NQS3); assay: ELISA specificity within the nectin family; type: binding
[2] = target: T2, recombinant human Nectin-1 (Homo sapiens, UniProt Q15223); assay: ELISA specificity within the nectin family; type: binding
T2 sequence (Q15223 31-517): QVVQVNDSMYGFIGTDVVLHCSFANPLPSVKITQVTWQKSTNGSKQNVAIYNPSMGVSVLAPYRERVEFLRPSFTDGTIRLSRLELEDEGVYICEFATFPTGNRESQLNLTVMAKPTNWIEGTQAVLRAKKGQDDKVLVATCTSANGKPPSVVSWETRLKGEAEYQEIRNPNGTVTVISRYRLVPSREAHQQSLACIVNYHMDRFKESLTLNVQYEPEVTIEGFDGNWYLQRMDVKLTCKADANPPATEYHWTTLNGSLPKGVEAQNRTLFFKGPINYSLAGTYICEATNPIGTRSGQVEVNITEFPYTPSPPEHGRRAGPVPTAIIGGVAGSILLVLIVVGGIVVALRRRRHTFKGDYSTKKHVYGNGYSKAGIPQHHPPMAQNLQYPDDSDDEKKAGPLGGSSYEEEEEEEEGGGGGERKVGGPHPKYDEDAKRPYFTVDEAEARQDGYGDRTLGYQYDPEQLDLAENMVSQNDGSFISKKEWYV

[3] = target: T3, recombinant human Nectin-4 protein (Homo sapiens, UniProt Q96NY8); assay: ELISA binding to recombinant Nectin-4
T3 sequence (Q96NY8 32-510): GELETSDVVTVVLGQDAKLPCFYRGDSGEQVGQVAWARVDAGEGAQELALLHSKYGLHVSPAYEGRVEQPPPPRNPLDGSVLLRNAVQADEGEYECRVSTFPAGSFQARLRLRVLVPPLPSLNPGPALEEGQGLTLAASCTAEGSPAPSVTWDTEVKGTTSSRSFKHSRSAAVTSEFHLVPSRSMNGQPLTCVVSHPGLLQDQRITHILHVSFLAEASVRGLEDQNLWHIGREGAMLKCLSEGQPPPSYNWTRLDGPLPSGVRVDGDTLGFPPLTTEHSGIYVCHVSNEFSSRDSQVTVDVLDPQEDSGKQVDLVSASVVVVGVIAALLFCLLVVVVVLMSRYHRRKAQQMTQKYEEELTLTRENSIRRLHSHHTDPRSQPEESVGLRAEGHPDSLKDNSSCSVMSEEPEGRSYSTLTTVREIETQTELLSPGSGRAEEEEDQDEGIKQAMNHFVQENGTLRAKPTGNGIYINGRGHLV

[4] = tested on: SUM190PT (a breast cancer cell line)
[5] = target: T4, recombinant human Nectin-2 (Homo sapiens, UniProt Q92692); assay: ELISA specificity within the nectin family; type: binding
T4 sequence (Q92692 32-538): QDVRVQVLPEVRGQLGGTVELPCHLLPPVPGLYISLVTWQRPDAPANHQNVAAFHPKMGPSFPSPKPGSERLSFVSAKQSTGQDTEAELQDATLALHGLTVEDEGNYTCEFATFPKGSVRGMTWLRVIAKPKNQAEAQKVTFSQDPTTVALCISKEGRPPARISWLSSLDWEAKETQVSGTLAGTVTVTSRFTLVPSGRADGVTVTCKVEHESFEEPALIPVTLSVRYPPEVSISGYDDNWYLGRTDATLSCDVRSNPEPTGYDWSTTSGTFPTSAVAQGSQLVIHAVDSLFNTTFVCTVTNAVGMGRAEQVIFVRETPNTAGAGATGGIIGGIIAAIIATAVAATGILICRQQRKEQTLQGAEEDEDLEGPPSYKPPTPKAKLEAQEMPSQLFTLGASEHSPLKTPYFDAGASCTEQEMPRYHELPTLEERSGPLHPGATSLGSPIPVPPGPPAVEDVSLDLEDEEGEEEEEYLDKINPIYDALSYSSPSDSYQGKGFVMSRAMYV

[6] = target: T5, recombinant mouse Nectin-4 (Mus musculus, UniProt Q8R007); assay: ELISA binding to recombinant Nectin-4
T5 sequence (Q8R007 31-508): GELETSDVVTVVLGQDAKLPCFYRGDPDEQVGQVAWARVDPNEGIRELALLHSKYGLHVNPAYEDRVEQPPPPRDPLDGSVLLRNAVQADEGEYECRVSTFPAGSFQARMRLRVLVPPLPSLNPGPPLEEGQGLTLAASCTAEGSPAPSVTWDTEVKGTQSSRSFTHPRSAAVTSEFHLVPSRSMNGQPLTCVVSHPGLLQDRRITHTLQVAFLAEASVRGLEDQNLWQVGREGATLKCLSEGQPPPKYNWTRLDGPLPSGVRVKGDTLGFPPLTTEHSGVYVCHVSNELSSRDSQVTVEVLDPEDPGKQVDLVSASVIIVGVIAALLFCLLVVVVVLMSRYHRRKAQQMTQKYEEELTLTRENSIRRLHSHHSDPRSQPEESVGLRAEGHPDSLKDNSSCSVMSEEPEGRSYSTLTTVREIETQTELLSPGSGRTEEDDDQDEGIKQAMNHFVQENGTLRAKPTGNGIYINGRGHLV

[7] = target: recombinant cynomolgus monkey Nectin-4; assay: ELISA binding to recombinant Nectin-4
[8] = tested on: bladder cancer xenograft model (BL9200); assay: HuPrime bladder cancer xenograft model (BL9200) in NOD/SCID mice; type: in vivo, NOD/SCID strain female mice; conditions: for Tumor Volume (mean ± SEM), Day 25: number of mice in brackets

Chain of recombinant human Nectin-3 (Q9NQS3 58-549): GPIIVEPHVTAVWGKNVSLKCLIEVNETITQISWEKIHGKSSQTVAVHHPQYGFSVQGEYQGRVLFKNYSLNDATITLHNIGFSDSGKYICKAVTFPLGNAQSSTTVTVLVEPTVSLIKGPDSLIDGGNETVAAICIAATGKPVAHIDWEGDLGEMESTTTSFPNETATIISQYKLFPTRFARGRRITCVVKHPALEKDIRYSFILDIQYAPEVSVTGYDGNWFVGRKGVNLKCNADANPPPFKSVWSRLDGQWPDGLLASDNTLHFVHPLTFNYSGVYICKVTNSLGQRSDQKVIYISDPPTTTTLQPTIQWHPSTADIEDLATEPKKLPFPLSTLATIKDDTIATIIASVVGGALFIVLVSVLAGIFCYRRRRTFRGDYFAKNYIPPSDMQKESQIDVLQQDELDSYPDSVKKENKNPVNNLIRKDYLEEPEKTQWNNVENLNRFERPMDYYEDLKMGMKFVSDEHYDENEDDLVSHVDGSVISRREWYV

Row | Molecule | EC50 (recombinant rat Nectin-4) | binding to recombinant human Nectin-3 (in words) [1] | binding to recombinant human Nectin-1 (in words) [2] | EC50 ([3]; Human Nectin-4) | binding to recombinant human Nectin-4 protein (in words) ([3]; specificity test) | cytotoxicity (in words) [4] | binding to recombinant human Nectin-2 (in words) [5] | binding to mouse Nectin-4 (in words) [6] | EC50 [7] | TGI (%), Day 25 ([8]; 5 mg/kg i.v. QW × 3wks) | ΔT/ΔC (%), Day 25 ([8]; 5 mg/kg i.v. QW × 3wks) | Tumor Volume (mean ± SEM), Day 25 ([8]; 5 mg/kg i.v. QW × 3wks) | TGI (%), Day 25 ([8]; 10 mg/kg i.v. QW × 3wks) | ΔT/ΔC (%), Day 25 ([8]; 10 mg/kg i.v. QW × 3wks) | Tumor Volume (mean ± SEM), Day 25 ([8]; 10 mg/kg i.v. QW × 3wks)
1 | B1 | 9.88 ng/mL | did not bind | did not bind | 8.31 ng/mL | specifically bound | enhanced cytotoxicity compared to isotype ADC | did not bind | minimal binding | 7.94 ng/mL | – | – | – | – | – | –
2 | B2 | – | – | – | – | – | – | – | – | – | 104.2% | -4.2% | 95.26 +/- 21.57(10) mm^3 | 109.5% | -9.5% | 10.64 +/- 2.93(10) mm^3
3 | B3 | – | – | – | – | – | – | – | – | – | 109.2% | -9.2% | 15.03 +/- 4.49(10) mm^3 | 110.0% | -10.0% | 1.95 +/- 1.95(10) mm^3

— patent publication EP4796129A1, “ANTI-NECTIN-4 ANTIBODY-DRUG CONJUGATE COMPRISING CAMPTOTHECIN DERIVATIVE” (Celltrion, Inc., priority 2023, dated 2025)
